Experimental findings from patent publication US20180318392A1 (Regeneron, published 2018) are described below.

This experiment has as its target T1, Tie2 on cells (human, UniProt Q02763 23-1124).
T1 construct: whole, on cells
The experiment can be described thus: expression cloning, staining of library-transfected COS cells with 1 µg/ml Ang1-FD-Fc. An excerpt:
cDNA expression libraries were constructed in the expression vector pJFE with mRNA isolated from human umbilical vein endothelial cells (HUVECs) and from the endothelial-like cell line EA.hy926, using a kit (Invitrogen). The libraries were transfected into dishes of COS cells and screened as in Davis, S., et al., (1994; Science. 266:816-819) with the chimeric molecule Ang1-FD-Fc, consisting of the Tie2-binding fibrinogen-like domain (FD) of Ang1 fused to a human Fc tag (Davis, 2003, supra, SEQ ID NO:5), at a concentration of 1 μg/ml. Stained cells were rescued, and plasmid DNA extracted from them was progressively enriched until isolated clones were obtained. Out of eight independent clones, one of the associated cDNAs coded for Tie2, and the other seven clones, differing only in the length of untranslated regions, contained cDNAs encoding thrombomodulin TM, a cell surface protein highly expressed in endothelial cells (Esmon, 1981, supra).

T1 sequence (Q02763 23-1124): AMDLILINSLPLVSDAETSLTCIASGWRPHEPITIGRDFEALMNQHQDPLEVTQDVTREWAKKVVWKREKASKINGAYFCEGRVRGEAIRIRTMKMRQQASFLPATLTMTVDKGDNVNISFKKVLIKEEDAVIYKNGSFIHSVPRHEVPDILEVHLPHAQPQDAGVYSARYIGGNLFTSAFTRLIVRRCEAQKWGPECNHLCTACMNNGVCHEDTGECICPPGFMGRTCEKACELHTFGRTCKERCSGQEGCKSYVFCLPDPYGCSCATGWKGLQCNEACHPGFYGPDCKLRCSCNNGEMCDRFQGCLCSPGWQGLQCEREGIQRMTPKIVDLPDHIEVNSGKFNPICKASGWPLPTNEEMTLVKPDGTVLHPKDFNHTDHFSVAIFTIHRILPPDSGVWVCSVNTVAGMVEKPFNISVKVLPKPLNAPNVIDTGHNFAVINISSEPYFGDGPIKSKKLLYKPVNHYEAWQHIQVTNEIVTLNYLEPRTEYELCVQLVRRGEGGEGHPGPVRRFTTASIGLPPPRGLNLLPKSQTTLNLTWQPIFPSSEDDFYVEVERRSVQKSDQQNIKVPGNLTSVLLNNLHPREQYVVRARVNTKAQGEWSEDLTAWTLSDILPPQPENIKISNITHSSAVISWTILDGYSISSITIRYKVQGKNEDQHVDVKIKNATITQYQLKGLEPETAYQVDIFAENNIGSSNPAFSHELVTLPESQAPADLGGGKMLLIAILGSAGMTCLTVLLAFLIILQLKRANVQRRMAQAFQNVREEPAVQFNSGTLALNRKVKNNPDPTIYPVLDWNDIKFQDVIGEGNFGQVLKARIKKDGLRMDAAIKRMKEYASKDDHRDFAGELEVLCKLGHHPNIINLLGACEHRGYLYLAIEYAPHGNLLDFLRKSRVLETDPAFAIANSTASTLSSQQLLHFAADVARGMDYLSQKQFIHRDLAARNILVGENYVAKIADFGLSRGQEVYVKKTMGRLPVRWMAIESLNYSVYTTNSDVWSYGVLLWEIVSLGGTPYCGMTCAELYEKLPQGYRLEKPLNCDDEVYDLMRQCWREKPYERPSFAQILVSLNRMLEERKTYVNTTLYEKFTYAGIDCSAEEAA

B1: Ang1-FD-Fc (Fc fusion)
chain: RDCADVYQAGFNKSGIYTIYINNMPEPKKVFCNMDVNGGGWTVIQHREDGSLDFQRGWKEYKMGFGNPSGEYWLGNEFIFAITSQRQYMLRIELMDWEGNRAYSQYDRFHIGNEKQNYRLYLKGHTGTAGKQSSLILHGADFSTKDADNDNCMCKCALMLTGGWWFDACGPSNLNGMFYTAGQNHGKLNGIKWHYFKGPSYSLRSTTMMIRPLDFGPG[human IgG1 Fc not listed]
notes: Signal peptide (residues 1-15) removed
Take B1: the binding result is listed as “binds”.
